Measurements: publication PMC6919601, “Identification of Plasmodium dipeptidyl aminopeptidase allosteric inhibitors by high throughput screening” (PLoS ONE, 2019)
Among all 110,000 compounds or so, about 230 (0.21%) showed an effect of 50% or more. The list shows a part of the results.

These compounds were tested against DPAP1 (Plasmodium falciparum, UniProt Q8IIJ9) (assay: primary screen, percent inhibition; read by cleavage of a fluorogenic dipeptide substrate; higher = more effect of the substance).
Parameters: species or system P. falciparum D10 trophozoite lysates; single well
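Also: 30 min substrate incubation versus DMSO and 10 µM JCP410 controls.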

DPAP1, sequence (Q8IIJ9 whole entry, looked up): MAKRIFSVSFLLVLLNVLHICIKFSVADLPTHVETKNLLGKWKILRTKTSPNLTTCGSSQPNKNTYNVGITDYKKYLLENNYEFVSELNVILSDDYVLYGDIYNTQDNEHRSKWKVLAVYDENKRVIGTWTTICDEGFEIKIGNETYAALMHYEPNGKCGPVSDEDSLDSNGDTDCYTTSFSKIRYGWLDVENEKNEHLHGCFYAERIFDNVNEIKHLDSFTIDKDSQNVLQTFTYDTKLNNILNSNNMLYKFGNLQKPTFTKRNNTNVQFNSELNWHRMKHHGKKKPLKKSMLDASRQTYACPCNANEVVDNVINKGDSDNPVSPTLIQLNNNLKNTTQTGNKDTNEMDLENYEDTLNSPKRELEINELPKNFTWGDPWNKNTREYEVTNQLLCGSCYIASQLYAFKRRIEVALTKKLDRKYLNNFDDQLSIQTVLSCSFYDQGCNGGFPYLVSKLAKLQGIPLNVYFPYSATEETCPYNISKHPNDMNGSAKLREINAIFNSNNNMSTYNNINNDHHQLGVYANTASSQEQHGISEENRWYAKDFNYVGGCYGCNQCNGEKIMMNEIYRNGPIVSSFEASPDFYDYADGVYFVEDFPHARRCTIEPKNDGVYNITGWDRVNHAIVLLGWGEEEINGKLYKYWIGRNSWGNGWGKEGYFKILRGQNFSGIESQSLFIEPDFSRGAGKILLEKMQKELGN

In order of rising “% Inhibition @ 10 uM” value:
1. COc1cc(CN2CCN(Cc3cc(OC)c4c(c3)OCO4)CC2)cc2c1OCO2  -13%
2. N#CCNC(=O)C1(NC(=O)c2csc(N3CCC(N4CCOCC4)CC3)n2)CCCCC1  -8.26%
3. CC(C)C[C@H](NC(=O)c1cccc(Oc2ccccc2)c1)C(=O)NCC#N  -7.36%
4. Cc1ccc(-n2cc(C(C)(C)C)nc2S)cc1  -6.83%
5. O=C(Cn1nnc2ccccc2c1=O)c1cccs1  -6.25%
6. CN(C)S(=O)(=O)c1ccc(Sc2ccccc2)c(CO)c1  -5.31%
7. Cc1ccc(/C(O)=C/c2nc3ncc(Br)cc3nc2O)cc1  -4.66%
8. Cc1ccc(S(=O)(=O)NC(C(=O)N2CCCCC2)C(C)C)cc1 (stereo not shown)  -4.02%
9. O=C(Nc1ccc(-c2ccccc2)cc1)c1ccccc1Br  -3.79%
10. COc1cc(NC(=O)/C=C/c2ccc(C(C)C)cc2)c(OC)cc1Cl  -3.77%
11. Cc1ccc(NC(=O)C(Cc2c[nH]c3ccccc23)NC(=O)OC(C)(C)C)cc1 (stereo not shown)  -3.69%
12. CCNC(=O)c1c(NC(=O)c2ccccc2Cl)sc2c1CCCC2  -3.53%
13. O=C(NCCCc1nc2ccccc2n1CCCOc1ccccc1)c1ccco1  -2.99%
14. COCCC/N=c1/c(-c2ccccc2)c(O)c1=O  -2.87%
15. C=CCn1c(SCC(=O)NCC2CCCO2)nc2sc3c(c2c1=O)CCC3 (stereo not shown)  -2.77%
16. CN1CCN(C(=O)CN2Cc3ccccc3C2=O)CC1  -2.69%
17. CCN(C(=O)c1ccc(Cl)cc1Cl)c1ccccc1C  -2.6%
18. CCc1nn(C(CC)C(=O)NCc2ccc(Cl)cc2)c(=O)c2cc3occc3n12 (stereo not shown)  -2%
19. Oc1ccc(C2=NN(c3ccccc3)C(C=C(Cl)Cl)C2)cc1 (stereo not shown)  -1.76%
20. COc1cccc(C2=NOC(C(=O)N3CCN(Cc4ccccc4)CC3)C2)c1 (stereo not shown)  -1.7%
21. COc1ccc(-c2c3c(=O)n(C)c(=O)n(C)c3c3c(COc4ccccc4)nc4ccccc4n23)cc1  -1.43%
22. Cc1ccc2c(c1)C(O)(C1COC(C)(C)CC1=O)C(=O)N2 (stereo not shown)  -1.32%
23. CCOC(=O)C1=C(CN2CCC(Cc3ccccc3)CC2)NC(=O)NC1c1cccc(OC)c1OC (stereo not shown)  -1.3%
24. CCN(CC)c1ccc(NC(=O)c2cccc(OC(F)F)c2)cc1  -1.22%
25. COc1ccc(C(=O)Nc2cccc(C(C)=O)c2)cc1  -0.641%
26. CNC(=O)c1ccccc1NC(=O)c1ccc(Cl)cc1Cl  -0.473%
27. Cc1c(Cl)cccc1N(CC(=O)NCc1ccccc1)S(=O)(=O)c1ccccc1  -0.0947%
28. Cc1cccc(Oc2nc3ccccn3c(=O)c2/C=C(\C#N)C(=O)NCc2ccccc2)c1C  0.315%
29. Cc1ccc(O)c(NC(=O)c2ccc3c(c2)C(=O)N(Cc2cccnc2)C3=O)c1  0.528%
30. COc1cccc(C2C(C(C)=O)=C(O)C(=O)N2CCc2c[nH]c3ccccc23)c1 (stereo not shown)  0.755%
31. Cc1ccc(C(=O)c2sc3nc4c(cc3c2N)CCC4)cc1  0.76%
32. CCOCC(=O)Nc1ccc2ccccc2c1  0.795%
33. CCOC(=O)c1c(NC(=O)C(C)Oc2ccc(OC)cc2)sc2c1CCC(C)C2 (stereo not shown)  1.26%
34. CC1=C(C(=O)N2CCOCC2)C(c2ccc(F)c(Br)c2)C2=C(O)CCCC2=N1 (stereo not shown)  1.35%
35. CN(C)CCC1Sc2ccccc2Sc2ccccc21 (stereo not shown)  1.4%
36. CN1CCCN(Cc2ccccc2Br)CC1  1.4%
37. CCOC(=O)C1CCN(C/C=C(\C)CCC=C(C)C)CC1  1.42%
38. CCOC(=O)c1[nH]nc2c1C(=O)N(Cc1ccccc1)C2=O  1.74%
39. CC(=O)N1CCC(NCC2CCCCC2)CC1  1.9%
40. COc1ccc(C(=S)Nc2ccccc2)cc1  1.92%
41. Cc1cc(C)c(C(=O)/C=C/c2cccc(Br)c2)c(O)n1  2.41%
42. CCOC(=O)N1CCC(Nc2nc3ccccc3c3nnc(C)n23)CC1  2.5%
43. O=C1NC(=O)C(=Cc2ccccc2OCc2ccccc2Cl)C(=O)N1  2.7%
44. O=C(C1=C(O)C(=O)N(Cc2ccco2)C1c1ccc(O)cc1)c1cc2ccccc2o1 (stereo not shown)  2.87%
45. NS(=O)(=O)c1ccc(CCNc2ncnc3c2cnn3-c2ccc(Cl)cc2)cc1  2.95%
46. CC(NC(=O)CCn1nc(-c2ccc(Cl)cc2)ccc1=O)c1ccccc1 (stereo not shown)  3.04%
47. Cc1cc(C)c(C(=O)/C=C/c2ccc(N(C)C)cc2)c(O)n1  3.54%
48. Cc1cc2nn(-c3ccccc3)nc2cc1N  4.08%
49. CNC(=O)C1CC(=O)N(CCc2ccc(OC)cc2)/C(=N/c2ccc(OC)cc2)S1 (stereo not shown)  4.76%
50. CCn1c2ccccc2c2cc(CN3CCc4cc(OC)c(OC)cc4C3)ccc21  5.55%
51. N=c1c2c3c(sc2nc2n1CCCCC2)CCCCC3  6.22%
52. CCn1ncc(C(=O)Nc2ccc(C)cc2Br)c1C  9.83%
